The record followed here is the supplement of paper PMC11417369.

± gives the standard deviation of the averaged measurements. The list shows a part of the results.

The test concerns PfAP2-I AP2 domain 3 (GST-tagged). As to the kind of experiment: gcPBM binding intensity (ln(normalized median fluorescence intensity)); higher = stronger DNA binding. The gist of the method: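 An Agilent 4 × 180k array of primer-extended double-stranded 36-bp intergenic genomic probes, with negative controls, was incubated for 1 h with GST-tagged P. falciparum DNA-binding domains expressed in E. coli. Alexa488 anti-GST antibody detected bound protein, scanned at 488 nm. Binding intensity is the highest Masliner-normalised natural-log median intensity across replicate spots of either probe orientation.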
“TGTTATATGTTCAAATGTACAAATCATATACATGTT [XGTACX_site3192]”: the “gcPBM binding intensity (ln)” value is 7.5 ± 0.65.

Consider “GTGTACAGACACAAAATATATACATATATATATATA [CACACA_negctrl_site1796]”, for which the “gcPBM binding intensity (ln)” value stood at 9.24 ± 0.23.

“AATATATAAACCGAACGTACATATTTTTTATACACC [XGTACX_site2121]”: the “gcPBM binding intensity (ln)” value came to 8.23 ± 0.24.

Take “ATTATTTTCTCATAGAGTACAAATGTTGTTGTTGTC [XGTACX_site1062]”: the “gcPBM binding intensity (ln)” value is 7.8 ± 0.38.

On to “TATTTTCATAATAAAAAAAAATAATTTAAAAAATAT [CACACA_negctrl_site748]”, for which the “gcPBM binding intensity (ln)” value is 7.39 ± 0.76.

With “TGTGCACATAATTAGTGTACATTTTTTATTTAGACA [XGTACX_site317]”, the “gcPBM binding intensity (ln)” value was 10.3 ± 0.88.

With “AATGGCAAAATAGGCACACACACATATACATATATA [CACACA_site1058]”, the “gcPBM binding intensity (ln)” value is 8.1 ± 0.38.

On to “CTTATTGATTTAAAAAGTACATATATGTATATACAC [XGTACX_site4072]”, for which the “gcPBM binding intensity (ln)” value came out at 7.95 ± 0.33.

In the case of “AAAAAAAAAAAAAATACACACATATAAATATAAATA [CACACA_site6189]”, the “gcPBM binding intensity (ln)” value was 8.04 ± 0.46.

Regarding “AGATTTAAATATCATACACACTTTATATATAATACA [CACACA_site4688]”, the “gcPBM binding intensity (ln)” value stood at 7.78 ± 0.59.

Turning to “ATTAGAGAATCGTAACCCAAATGAACATACTTAAAT [GTGCAC_negctrl_site363]”, the “gcPBM binding intensity (ln)” value is 7.62 ± 0.6.

Take “AATTATATTTGAAATACACACATAAAAATCATATAG [CACACA_site3468]”: the “gcPBM binding intensity (ln)” value was 7.61 ± 0.5.

Take “GAGCGTAATCTATTTGCACACTTATTTGTTCTTAAA [CACACA_site673]”: the “gcPBM binding intensity (ln)” value worked out at 10.1 ± 0.18.

As for “GTGTATAATATAGGATGTACAATAAAACACCGATTG [XGTACX_site7429]”, the “gcPBM binding intensity (ln)” value stood at 8.28 ± 0.38.

For “ATAAAAACATAAACAAATCAAAAAAAAAAAAAAAAA [CACACA_negctrl_site13]”, the “gcPBM binding intensity (ln)” value stood at 8 ± 0.67.

For “TTGTTTATCAACAGCACACACAACAACAACAACAAC [CACACA_site458]”, the “gcPBM binding intensity (ln)” value was determined as 8.74 ± 0.96.

As to “ATGGATTATACGTGCACACATATATACCAATAAATA [CACACA_site4524]”, the “gcPBM binding intensity (ln)” value came out at 11.2 ± 0.22.

For “CATTAAAATATGAGATGTACACAATATCTATTATAT [XGTACX_site4979]”, the “gcPBM binding intensity (ln)” value was 7.82 ± 0.51.

As to “ATTTAAATATCTTCTTTTTTTTTTTTTTTTGAAATT [CACACA_negctrl_site1074]”, the “gcPBM binding intensity (ln)” value is 7.12 ± 0.86.

For the sequence “TTTATAATTCCATAATGTACAAATAAAATAAAAAAT [XGTACX_site663]”, the “gcPBM binding intensity (ln)” value was determined as 7.99 ± 0.51.

On to “AAAACTTTTAAAATTTTGTATTCATTCCTTCAACAA [GTGCAC_negctrl_site697]”, for which the “gcPBM binding intensity (ln)” value is 7.51 ± 0.76.

Turning to “AGGAGGATAGTTCACAGTACCCAGTAACTCTACGAG [XGTACX_site2008]”, the “gcPBM binding intensity (ln)” value came to 7.36 ± 0.53.

With “AAAATTAATGTTGGTTGTACAAAAATTAAATATGGT [XGTACX_site66]”, the “gcPBM binding intensity (ln)” value worked out at 8.39 ± 0.32.

As for “GTACAAAGGACTATACATAGAAAAATATATATATAT [XGTACX_negctrl_site164]”, the “gcPBM binding intensity (ln)” value is 9.22 ± 0.26.

For the sequence “AAAGATTTAATCTATACATGCAAATATATAGAAAAG [TGCATGCA_site373]”, the “gcPBM binding intensity (ln)” value worked out at 7.63 ± 0.76.

In the case of “AATAAAAATAGGAAATGTACACATATATATATATAT [XGTACX_site1853]”, the “gcPBM binding intensity (ln)” value is 9.35 ± 0.21.

Regarding “TATATATACACACACACATGCATGCCGATATATATA [TGCATGCA_site29]”, the “gcPBM binding intensity (ln)” value was found to be 8.13 ± 0.46.

As for “AAAAGATATTTGAATATACACACGATTTAAATTTAA [CACACA_site3865]”, the “gcPBM binding intensity (ln)” value amounted to 7.57 ± 0.58.

Regarding “GAACAAAATTTTATATGTACATAATATTTATATATA [XGTACX_site3667]”, the “gcPBM binding intensity (ln)” value was determined as 8 ± 0.2.

Regarding “AGATGCCAAGTATAAAGTACATATCAAAATGTATAT [XGTACX_site456]”, the “gcPBM binding intensity (ln)” value was determined as 7.68 ± 0.58.

For the sequence “TTATTTTATTTTTATACACACATGTTTTAATGTTCA [CACACA_site249]”, the “gcPBM binding intensity (ln)” value was 7.99 ± 0.59.

As to “TTAATAGAAATACGTGCACACTAAAGGGAAAACAAT [CACACA_site4923]”, the “gcPBM binding intensity (ln)” value worked out at 10.32 ± 0.092.

For “ACAAGTATTAATTACACACTCAAAAAGAAAAAACAA [CACACA_site2281]”, the “gcPBM binding intensity (ln)” value was 7.75 ± 0.42.

Turning to “ATATATTCTATATATACATGCATATATATTATATGT [TGCATGCA_site185]”, the “gcPBM binding intensity (ln)” value came to 7.72 ± 0.67.

Consider “ATGCAACTATATATATATATTATATGTATGAATAAT [XGTACX_negctrl_site434]”, for which the “gcPBM binding intensity (ln)” value came to 7.63 ± 0.41.

As to “TGAATAAATATGCAGCGTACATAATCCTCTTAAAAT [XGTACX_site8462]”, the “gcPBM binding intensity (ln)” value was found to be 7.87 ± 0.39.

Consider “GTTAAATGAAAATATGTACACACTTGAAAATTTTTA [CACACA_site2924]”, for which the “gcPBM binding intensity (ln)” value came out at 7.86 ± 0.37.

Turning to “AAAGTATATAGGATACGTACATACATAAATAAATAA [XGTACX_site8216]”, the “gcPBM binding intensity (ln)” value came to 7.84 ± 0.73.

Regarding “GTACAAAATTGACAAGTGCAAAAATTAAAAGCAAGA [GTGCAC_site9838]”, the “gcPBM binding intensity (ln)” value came to 9.69 ± 0.39.

On to “GTGTGAGCACATTCGGGAGAGTTTTTTTTTTTTTTT [CACACA_negctrl_site1776]”, for which the “gcPBM binding intensity (ln)” value worked out at 8.7 ± 0.74.

Turning to “TATAAAAATAAGCACACACACAAATATAGATTTATT [CACACA_site6558]”, the “gcPBM binding intensity (ln)” value is 7.95 ± 0.23.

Regarding “ATATATATATAAATATGTACATATATTTATTTCTTT [XGTACX_site3784]”, the “gcPBM binding intensity (ln)” value stood at 8.88 ± 0.028.

“TATATTCAAAATGGTACACACAATATTTAATTGTGC [CACACA_site2631]”: the “gcPBM binding intensity (ln)” value came out at 7.68 ± 0.34.

Consider “ACATTTTCTTATAAATGTACATATATATTATTATAT [XGTACX_site4404]”, for which the “gcPBM binding intensity (ln)” value came to 7.72 ± 0.33.

For “TGACATATAAAATATTCACACACAAGTTATAGTTCT [CACACA_site9209]”, the “gcPBM binding intensity (ln)” value came out at 7.42 ± 0.5.

On to “AAAACAAACAAAAAAAAAAAAAAAAATATCAATCTA [TGCATGCA_negctrl_site203]”, for which the “gcPBM binding intensity (ln)” value is 7.01 ± 0.52.

As to “GACGTGGAAAAAAAAACACACACAAAAAAAAAAAAA [CACACA_site9324]”, the “gcPBM binding intensity (ln)” value is 8.19 ± 0.74.

In the case of “TGAACATCATTTTTATGTACACACACATATACGTTG [XGTACX_site3864]”, the “gcPBM binding intensity (ln)” value worked out at 7.96 ± 0.28.

As to “ATATATCATGCCAAGGGTACAAATGTGTAGTTGAAA [XGTACX_site2820]”, the “gcPBM binding intensity (ln)” value came to 7.99 ± 0.73.

As for “TATATATATATATATACATGCATTTTTGTTTGCTTA [TGCATGCA_site256]”, the “gcPBM binding intensity (ln)” value worked out at 9.23 ± 0.27.

Regarding “TTTTTTTTTTCTCCTGCATGCAGCATTTATATATTA [TGCATGCA_site390]”, the “gcPBM binding intensity (ln)” value is 10.1 ± 0.57.

Regarding “GACAACGTTTCAATGTGTACATATTTATAATATATA [XGTACX_site2427]”, the “gcPBM binding intensity (ln)” value came to 7.87 ± 0.62.

Regarding “TATATATATATATGTACACACATCAATCATATTAAC [CACACA_site1946]”, the “gcPBM binding intensity (ln)” value turned out to be 9.41 ± 0.4.

Regarding “ATTGAAAAACCGTTTAGTACATATCATCACGTTTGT [XGTACX_site1295]”, the “gcPBM binding intensity (ln)” value was found to be 7.78 ± 0.37.

In the case of “TAAAATAAAATAAGTAGTACATATATAATTATATAT [XGTACX_site6733]”, the “gcPBM binding intensity (ln)” value turned out to be 7.73 ± 0.37.

Consider “TTTTTTTTTTTTTTTACACACTGCATACAAGAAAAA [CACACA_site5642]”, for which the “gcPBM binding intensity (ln)” value was 8.54 ± 0.66.
